{
  "source": "PubChem BioAssay AID662",
  "about": "(National Center for Advancing Translational Sciences (NCATS), 2007)",
  "note": "About 1,800 (2.5%) of roughly 71,000 compounds were called active. This list was built around the results that the source calls inconclusive (neither active nor inactive); the mix of calls is not that of the screen. Calls come from the whole dose curve; as a rule, active = well fitted activation curve with a large enough effect in the signal ratio, with a control signal flat (not every such curve was filed as active); inconclusive = small, poorly fitted or top-dose-only effect, or effect the other way, or a change in a side signal; inactive = flat fitted curve, though single readings scatter; the % refers to the signal ratio. Potencies beside an inconclusive call are fits to weak or partial responses and may not hold up. Potency is the fitted concentration of half-maximal effect; tags give direction and shape of the fitted curve.",
  "data": [
    {"assay": "Cell signaling CRE-BLA (Fsk stim); for activity change, negative = inhibition: % of control where 0% means no effect", "conditions": "CHO CRE-bla reporter (cAMP response element driving beta-lactamase), forskolin EC10, beta-lactamase ratio; activity change, negative = inhibition: at 38.2 µM (top of the series) unless noted", "summary_of_the_method": "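CHO CRE-bla cells, overnight plating in Opti-MEM with 0.5% dialyzed FBS; cpd titration + EC10 NKH 477, 3 h 37 °C; CCF4 2 h RT; ex 405/em 460 vs 530 ratio → %Activity, AC50.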", "values": [
      {"molecule": "COC(=O)Nc1c(-c2ccccc2)nc2ccccn12", "activity change, negative = inhibition": "inconclusive: -10.5%"},
      {"molecule": "Cc1noc(NS(=O)(=O)c2ccc(NC(=O)c3ccoc3C)cc2)c1C", "activity change, negative = inhibition": "inactive: -5.43%"},
      {"molecule": "COc1ccccc1NC(=O)CSc1nc2nc(C)cc(C)c2c(=O)[nH]1", "Potency": "active: 10 µM"},
      {"molecule": "Nc1nc2c(c(=O)[nH]1)CN(CCCN1CCOCC1)CN2", "activity change, negative = inhibition": "inactive: 4.76% [at 7.6 µM]"},
      {"molecule": "CC(=O)c1ccccc1NS(=O)(=O)c1c(C)nn(-c2ccccc2)c1C", "activity change, negative = inhibition": "inconclusive: 12%"},
      {"molecule": "Cn1cccc1C(=O)N1CCC2(CCCN(Cc3ccccc3)C2)CC1", "activity change, negative = inhibition": "inconclusive: -11%"},
      {"molecule": "O=c1[nH]ncc2ccccc12", "activity change, negative = inhibition": "inactive: -7.96%"},
      {"molecule": "CCOc1ccc(Cc2nccc3cc(OCC)c(OCC)cc23)cc1OCC", "Potency": "active: 1.26 µM"},
      {"molecule": "Cc1ccc(-c2cc(C(F)(F)F)c(C#N)c(SCCC#N)n2)o1", "Potency": "inconclusive: 3.16 µM [rising, single point]"},
      {"molecule": "Cc1oc2nc(SCC(=O)N3CCCCC3)nc(N)c2c1C", "activity change, negative = inhibition": "inconclusive: 27.1%"},
      {"molecule": "Cc1ccccc1-n1c(SCC(=O)c2cc(C)n(C)c2C)nnc1-c1ccncc1", "Potency": "inconclusive: 10 µM [rising, partial curve]"},
      {"molecule": "CC1(C)CC(=O)C(C=NCC2CCCO2)=C(O)C1", "note": "(configuration not stated)", "activity change, negative = inhibition": "inconclusive: 11.2% [at 7.6 µM]"},
      {"molecule": "CC(=O)N(C[C@@H](C)C(=O)O)c1c(I)cc(I)c(N)c1I", "activity change, negative = inhibition": "inactive: 5.43% [at 17.1 µM]"},
      {"molecule": "CCOC(=O)c1c(-c2ccccc2)c(C(C)=O)c(=O)n(C)c1C", "activity change, negative = inhibition": "inactive: 4.08%"},
      {"molecule": "Cc1cccc(-c2c3c(=O)n(C)c(=O)n(C)c3cn2-c2ccc(O)cc2)c1", "Potency": "inconclusive: 2.51 µM [rising, full curve, poor fit]"},
      {"molecule": "Cn1c(COc2ccccc2)nnc1SCC(=O)Nc1ccc(N2CCOCC2)c(Cl)c1", "activity change, negative = inhibition": "inconclusive: 20.4%"},
      {"molecule": "O=S(=O)(c1ccc(C2CCCCC2)cc1)N1CCN(c2ncccn2)CC1", "Potency": "inconclusive: 3.98 µM [rising, partial curve]"},
      {"molecule": "CCOC(=O)CCC(NC(=O)c1cncc(O)c1)C(=O)OCC", "note": "(configuration not stated)", "activity change, negative = inhibition": "inactive: 2.82%"},
      {"molecule": "COc1cccc(-n2nnc3c(=O)n(C/C=C/c4ccccc4)cnc32)c1", "activity change, negative = inhibition": "inconclusive: 9.38%"},
      {"molecule": "O=C(CCCSc1nc2ccccc2s1)Nc1nccs1", "Potency": "inconclusive: 2 µM [falling, single point]"},
      {"molecule": "C[C@@H]1C[C@H]2[C@H]3C[C@@H](F)C4=CC(=O)C=C[C@]4(C)[C@@]3(Cl)[C@@H](O)C[C@@]2(C)[C@@H]1C(=O)COC(=O)C(C)(C)C", "activity change, negative = inhibition": "inactive: 0.48% [at 17.1 µM]"},
      {"molecule": "CC[C@H](C)[C@H](N)C1=N[C@H](C(=O)N[C@@H](CC(C)C)C(=O)N[C@@H](CCC(=O)O)C(=O)N[C@@H](C(=O)N[C@H]2CCCCNC(=O)[C@@H](CC(N)=O)NC(=O)[C@@H](CC(=O)O)NC(=O)[C@@H](Cc3cnc[nH]3)NC(=O)[C@@H](Cc3ccccc3)NC(=O)[C@@H]([C@@H](C)CC)NC(=O)[C@@H](CCCN)NC2=O)[C@@H](C)CC)CS1", "activity change, negative = inhibition": "inactive: -2.45% [at 17.1 µM]"}
    ]}
  ]
}
